# The supplement of paper PMC3334620
# The full ranking holds about 33,000 sequences; the median of “E-score (-0.5 to 0.5)” is about -0.053, and the highest 2% start at about 0.37. Some of the results follow.
# Target: Hap1 (UniProt P0CE41)
# Assay: PBM E-score (8-mer binding enrichment) (E-score (-0.5 to 0.5)); higher = stronger / more preferred TF binding; most listed sequences are background and not binding sites
# Conditions: protein concentration: 200 nM; construct: GST-DNA-binding domain
# Description: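 Universal 'all 10-mer' protein binding microarrays (Agilent AMADID 015681) probed with GST-tagged S. cerevisiae TFs (full-length or DBD) made by in vitro transcription/translation (PURExpress), about 100-200 nM. Bound TF was detected with fluorescent anti-GST. Each ungapped 8-mer (which stands for itself and its reverse complement) is scored by the PBM enrichment score (E-score), a modified Wilcoxon-Mann-Whitney statistic from -0.5 to +0.5, computed with the Universal PBM Analysis Suite. Scale: above 0.35 generally sequence-specific binding.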
# UniProt P0CE41, sequence (P0CE41 whole entry): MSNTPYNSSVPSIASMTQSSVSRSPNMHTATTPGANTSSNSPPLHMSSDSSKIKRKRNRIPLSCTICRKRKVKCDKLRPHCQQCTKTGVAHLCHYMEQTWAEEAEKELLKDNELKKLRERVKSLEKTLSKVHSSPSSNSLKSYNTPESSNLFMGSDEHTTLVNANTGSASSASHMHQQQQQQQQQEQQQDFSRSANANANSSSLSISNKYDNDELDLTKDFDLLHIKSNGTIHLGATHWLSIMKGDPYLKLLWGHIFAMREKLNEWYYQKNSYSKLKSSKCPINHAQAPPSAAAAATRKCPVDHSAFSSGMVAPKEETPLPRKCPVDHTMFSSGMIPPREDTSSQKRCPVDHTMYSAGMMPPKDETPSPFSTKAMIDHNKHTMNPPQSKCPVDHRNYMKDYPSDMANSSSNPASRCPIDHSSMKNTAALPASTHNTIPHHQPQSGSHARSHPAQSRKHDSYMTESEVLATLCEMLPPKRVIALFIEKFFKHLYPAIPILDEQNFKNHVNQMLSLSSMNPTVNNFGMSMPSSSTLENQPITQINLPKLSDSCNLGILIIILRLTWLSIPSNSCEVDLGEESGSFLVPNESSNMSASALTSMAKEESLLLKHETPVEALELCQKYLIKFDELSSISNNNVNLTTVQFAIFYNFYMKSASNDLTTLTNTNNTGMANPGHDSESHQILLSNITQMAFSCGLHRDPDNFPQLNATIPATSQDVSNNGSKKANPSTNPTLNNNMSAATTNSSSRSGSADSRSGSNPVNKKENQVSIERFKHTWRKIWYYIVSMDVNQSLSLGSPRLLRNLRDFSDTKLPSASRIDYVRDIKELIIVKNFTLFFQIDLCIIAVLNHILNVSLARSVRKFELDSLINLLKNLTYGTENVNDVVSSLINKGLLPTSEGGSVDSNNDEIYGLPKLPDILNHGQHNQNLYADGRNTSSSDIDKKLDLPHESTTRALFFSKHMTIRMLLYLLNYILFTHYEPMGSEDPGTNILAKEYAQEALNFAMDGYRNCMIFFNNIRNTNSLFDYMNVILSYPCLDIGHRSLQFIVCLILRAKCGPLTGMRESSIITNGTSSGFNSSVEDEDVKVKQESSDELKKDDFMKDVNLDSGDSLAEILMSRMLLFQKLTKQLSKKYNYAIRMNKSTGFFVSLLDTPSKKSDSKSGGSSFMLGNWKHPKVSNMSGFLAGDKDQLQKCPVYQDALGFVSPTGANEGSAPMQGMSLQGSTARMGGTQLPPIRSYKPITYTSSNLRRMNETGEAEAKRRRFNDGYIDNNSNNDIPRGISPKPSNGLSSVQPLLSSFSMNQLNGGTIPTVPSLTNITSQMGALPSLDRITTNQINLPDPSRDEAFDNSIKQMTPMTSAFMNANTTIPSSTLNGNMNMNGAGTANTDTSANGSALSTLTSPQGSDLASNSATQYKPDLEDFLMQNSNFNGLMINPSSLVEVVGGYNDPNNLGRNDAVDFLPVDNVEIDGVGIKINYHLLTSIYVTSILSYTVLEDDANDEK
row,Sequence,PBM E-score
1,AGCGTGCC,-0.00934
2,ACTGGCTA,-0.205
3,CTCAGTAC,-0.163
4,GAGTTCCA,-0.0628
5,GCTGTCCC,-0.0362
6,CGCCCCAA,0.202
7,CGTTTCTC,0.136
8,ACATCGAA,0.0444
9,AGATAGGA,-0.0706
10,AGGAGTAG,-0.195
11,CAACAAGA,-0.156
12,AGGACCAA,-0.0317
13,AACTCCAA,-0.0924
14,CATAAAAG,-0.15
15,CCACCTAC,-0.268
16,CGTTCAAC,-0.0796
17,CTTGCTGC,-0.274
18,GATGCAAC,-0.132
19,ACCGTGAG,-0.00275
20,CTAGATCA,-0.253
21,TTAAGGAA,-0.0562
22,ACACGAAG,-0.0865
23,AGGAAAGG,-0.0107
24,TCGCCTAA,0.0461
25,CCTAACAG,-0.127

row,Sequence,PBM E-score
1,ACGTTATG,-0.0102
2,CATGGCTA,-0.156
3,GCTTATTA,0.034
4,AACTCGAA,-0.0767
5,AGCTCATC,-0.0143
6,CGCAGTAC,-0.0761
7,GACGGGCA,0.0331
8,GATTCCGA,0.334
9,AAACTAGT,-0.15
10,ATGAGCGC,0.0308
11,AAAGATTA,0.0908
12,CGCTCTTC,-0.094
13,GGACAGAA,0.079
14,ACTCGCCG,0.202
15,CATCCCGC,0.0848
16,CAGACTCA,-0.251
17,GTACACCA,-0.203
18,ATACGAGG,0.0558
19,AGCCGCGA,0.223
20,GGACGATA,0.142
21,CGTCGCGC,0.133
22,ATAAGTGA,-0.103
23,AGCGTAGA,-0.0389
24,AGCTGCCC,0.157
25,AATCAGGA,-0.225

row,Sequence,PBM E-score
1,GCCAATAC,0.0676
2,ATCACATG,-0.204
3,ACAACGGA,0.275
4,GACCCGCC,0.112
5,CTGATCCC,-0.089
6,CTACATAG,-0.107
7,AAGCTCAC,-0.0627
8,AGATGGCT,-0.0974
9,CCCCTCGG,0.284
10,ACCACGAC,-0.195
11,GCTTGCGA,-0.0221
12,ATTCATTG,-0.204
13,AGCGCTTC,0.112
14,CCCGAACG,0.272
15,CAAAATGG,0.0452
16,TAACGGAA,0.375
17,CACTTGGG,-0.142
18,ACCCGGGT,0.393
19,AAGAGCAT,-0.101
20,ACATGGTG,-0.243
21,CTCGAGGA,-0.254
22,ACGGGACC,-0.0272
23,ATGGCAAG,-0.163
24,AGTATCAG,-0.168
25,AAATGTTC,-0.108

row,Sequence,PBM E-score
1,CTTTGAGA,-0.176
2,ATTCCGCA,0.196
3,AACCCATG,-0.0437
4,CCCCCTTC,-0.186
5,CAACATTC,-0.146
6,TGCCACAA,-0.236
7,CGTTACGC,-0.00422
8,CTAAAAGC,0.0727
9,CCCAGGCG,-0.125
10,CTCTTCTC,-0.103
11,CATTCACA,-0.223
12,ACTTGCTC,-0.2
13,ACCATAAT,0.00445
14,CATGTTTA,-0.0786
15,CATGTGGG,-0.119
16,AACGGTTC,0.0606
17,CACAGTGA,-0.266
18,ACCTGTTC,-0.142
19,AAAGACAA,-0.0535
20,CCGGCAAA,0.387
21,GTAATAAA,0.108
22,AGCACAAT,-0.205
23,ACACCATC,-0.317
24,GTCAGTTA,-0.131
25,ACCGACGT,0.185

row,Sequence,PBM E-score
1,ATCTACTG,-0.17
2,GCACGTTA,-0.0602
3,AAGATTGG,-0.113
4,GGCACGAC,-0.152
5,AAATTCTG,-0.0955
6,CAACTTCC,0.0904
7,ACCTAGTG,-0.152
8,AGAGACTA,0.0586
9,CACAGCTC,-0.235
10,GCGCCATA,-0.00075
11,AGTTTGCA,-0.2
12,AAATGCAG,-0.165
13,TCAGGGAA,-0.145
14,TCTTGCCA,-0.195
15,CGTCGTAA,-0.158
16,CACAGATC,-0.0863
17,AATGGGTC,-0.019
18,CCGATCCC,0.285
19,CAGCATCG,-0.168
20,AGGGATTC,-0.141
21,CGCTGGCA,-0.0955
22,CCATATGC,0.0891
23,CCTATTAG,-0.0974
24,CCCCATAA,-0.0249
25,GAAATGAC,0.0272

row,Sequence,PBM E-score
1,AATTTTGC,-0.126
2,AAGCCCTG,-0.185
3,AATATGCG,0.0556
4,GCAGGACC,-0.0483
5,CCACTATA,-0.102
6,GTTTCCGA,0.379
7,GCCGGAGC,0.344
8,CCCATTCG,0.0597
9,TAGAAATA,-0.00987
10,AGTGAACA,-0.165
11,TGGTCGAA,-0.32
12,GATTTGTA,-0.0917
13,GTTGTTGA,-0.253
14,CGCTTTAG,0.0453
15,AGAATGCC,-0.167
16,GGAACTGA,0.164
17,ACGGATAG,0.11
18,ACGGCCGA,0.419
19,CAGCGTCG,0.00157
20,ATGTAAGG,-0.155
21,CCAGAGCC,-0.211
22,GACTAATA,-0.0323
23,CGCTTCTC,0.0163
24,GATCTATA,-0.00468
25,ACCTGTCC,0.0413

row,Sequence,PBM E-score
1,CTGGCCAC,-0.21
2,CAAACCCG,0.356
3,AGTTAGCC,0.0194
4,GCCATCGA,0.0856
5,CAGGAGGC,-0.0654
6,CACGAGGC,-0.0553
7,CGGCAAAA,0.127
8,CGGTCGTA,0.383
9,GCAAAAGC,0.00761
10,GGGGTCCA,-0.0995
11,ACGAGGCA,-0.246
12,CAAGGTAG,-0.102
13,ATCTAAAT,0.149
14,CTTCGGTC,0.284
15,CTTTCGCA,-0.158
16,AACTAAAC,0.00956
17,CGCCGGAG,0.399
18,CCATAGTA,-0.0347
19,AGTGAACG,-0.17
20,CTGCTACC,-0.239
21,ATCGTGAC,-0.0933
22,CAATTACC,0.117
